# Out of some 310,000 compounds screened, about 14,000 (4.5%) showed an effect of 50% or more. Effects have a minus sign here. The list shows a part of the results.
# Target: human ether-à-go-go-related gene (hERG) potassium channel (human, UniProt Q12809)
# Assay: primary screen, population patch clamp on CHO cells stably expressing hERG
# 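Further: peak tail current of the secondary pulse compared with the same well before compound.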
# human ether-à-go-go-related gene (hERG) potassium channel, sequence (Q12809 whole entry, looked up): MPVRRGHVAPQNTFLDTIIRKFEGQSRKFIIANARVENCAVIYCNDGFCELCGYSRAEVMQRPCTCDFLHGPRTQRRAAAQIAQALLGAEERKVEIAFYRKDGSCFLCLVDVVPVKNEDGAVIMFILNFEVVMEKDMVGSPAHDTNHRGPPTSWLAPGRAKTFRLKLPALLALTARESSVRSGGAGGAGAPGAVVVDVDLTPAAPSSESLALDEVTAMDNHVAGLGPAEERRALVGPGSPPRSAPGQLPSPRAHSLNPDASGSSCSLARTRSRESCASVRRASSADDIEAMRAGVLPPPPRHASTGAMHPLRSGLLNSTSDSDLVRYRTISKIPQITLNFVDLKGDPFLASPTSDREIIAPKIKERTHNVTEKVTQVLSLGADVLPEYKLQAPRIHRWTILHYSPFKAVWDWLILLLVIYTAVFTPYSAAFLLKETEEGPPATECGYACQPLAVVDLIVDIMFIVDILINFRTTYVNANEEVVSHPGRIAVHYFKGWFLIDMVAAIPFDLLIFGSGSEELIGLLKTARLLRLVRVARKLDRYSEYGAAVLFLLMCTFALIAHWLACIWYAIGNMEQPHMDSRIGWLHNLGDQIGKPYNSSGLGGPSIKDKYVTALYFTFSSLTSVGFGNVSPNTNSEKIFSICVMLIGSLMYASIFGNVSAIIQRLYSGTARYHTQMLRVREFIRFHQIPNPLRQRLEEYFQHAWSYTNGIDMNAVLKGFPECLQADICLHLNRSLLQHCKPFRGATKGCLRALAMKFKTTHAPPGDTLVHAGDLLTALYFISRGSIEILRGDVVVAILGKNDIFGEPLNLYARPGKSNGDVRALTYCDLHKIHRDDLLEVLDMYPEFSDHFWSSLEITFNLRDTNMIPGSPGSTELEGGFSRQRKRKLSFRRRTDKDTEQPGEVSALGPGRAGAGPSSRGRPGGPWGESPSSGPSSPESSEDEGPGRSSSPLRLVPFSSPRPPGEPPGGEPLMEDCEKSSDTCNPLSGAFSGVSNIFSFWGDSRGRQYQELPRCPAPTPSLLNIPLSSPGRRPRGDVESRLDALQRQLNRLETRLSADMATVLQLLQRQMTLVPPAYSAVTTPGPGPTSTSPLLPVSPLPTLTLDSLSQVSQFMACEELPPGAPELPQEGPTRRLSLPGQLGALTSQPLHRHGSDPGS
row,Compound,"hERG current change (%, negative = inhibition) at 10uM [%]"
1,CN1CCN(c2ccc(NC(=O)c3ccccc3Br)cc2)CC1,-4.4
2,O=C(CCN1C(=O)C2CCCCC2C1=O)Nc1ccc(F)c(F)c1F (stereo not shown),-8.85
3,COc1ccc(-c2ncccc2OC(=O)C23CC4CC(CC(C4)C2)C3)cc1OC.Cl,-7.51
4,Cc1ccc(NC(=O)c2ccc(S(=O)(=O)N3CCOCC3)cc2)nc1,-9.23
5,COc1ccc(Cc2nnc(NC(=O)c3cccc(C)c3)s2)cc1,34.5
6,Cc1ccc(-c2noc(CN(C(=O)c3ccc4c(c3)OCO4)C(C)C)n2)cc1,11.2
7,O=C(NC(NC(=S)Nc1ccccc1C(=O)O)C(Cl)(Cl)Cl)c1cccc([N+](=O)[O-])c1 (stereo not shown),14.3
8,COc1ccc([C@@H](C)NC(=O)c2ccc3oc(C(C)C)nc3c2)cc1,26.1
9,CCN(N=O)[C@@H](Cc1ccccc1)CN(N=O)[C@@H](Cc1ccccc1)CN(C)N=O.[Na+],-5.3
10,COc1ccc(OC)c(/C=N\NC(=O)CC(=O)NCCc2ccccc2)c1,11.9
11,Cc1nc(N2CCOCC2)c2c(C)c(C(=O)Nc3ccccc3Cl)sc2n1,11.1
12,COCC(C)NC(=S)Nc1ccccc1[N+](=O)[O-] (stereo not shown),-3.75
13,CC(C)c1nc(SCC(=O)c2ccccc2)c2c(=O)n(C)c(=O)n(C)c2n1,6.89
14,COc1ccc2c(COC(=O)CNC(=O)C34CC5CC(CC(C5)C3)C4)cc(=O)oc2c1,-31.4
15,CCNC(=O)c1ccc(=O)n(Cc2ccc(Cl)cc2Cl)c1,-18.6
16,CC1CCCCC1NC(=O)c1ccc2c(c1)OCCO2 (stereo not shown),3.51
17,O=C(Nc1ccc(S(=O)(=O)N2CCCC2)cc1Cl)C1=COCCO1,-17.7
18,CCNC(=O)c1cc(Br)ccc1Cl,12.1
19,Cc1ccc(NS(=O)(=O)c2ccc(NC(=O)c3cccc(NC(=O)C(C)C)c3)cc2)cc1,3.7
20,CNC(=S)N/N=C(\C)c1ccc(C(C)(C)C)cc1,-16
21,Cn1cc(Br)c(-c2cccc(NC(=O)CCCC(=O)O)c2)n1,6.24
22,CCn1c(COc2cc(C)cc(C)c2)nnc1SCC(=O)N1CCN(c2ccccc2)CC1,12.7
23,CCN(CC)CCNC(C(=O)Nc1cccc(C(C)=O)c1)c1ccccc1.O=C(O)C(=O)O (stereo not shown),-79.1
24,O=C(CN(C(=O)CCC(=O)Nc1nccs1)c1ccc2c(c1)OCCO2)NCc1ccco1,17.8
25,O=C1NC(=O)N(c2ccccc2)C(=O)/C1=C\c1ccccc1[N+](=O)[O-],21.8
26,CCCCC(=O)N/N=C/c1ccc(Sc2cccc3cccnc23)o1,5.02
27,CN1C(=O)NC(c2ccc(O)cc2)C(C(=O)c2cccs2)C1(O)C(F)(F)F (stereo not shown),-17.5
28,CC(=O)Nc1ccc(NC(=O)c2nc(-c3ccccc3)oc2C)cc1,27

row,Compound,"hERG current change (%, negative = inhibition) at 10uM [%]"
1,Cl.O=C(Nc1cccc(C(F)(F)F)c1)c1cccnc1N1CCN(c2ccccc2)CC1,7.25
2,COc1ccc(NC(=S)N(CCc2c(C)[nH]c3ccc(C)cc23)Cc2cccnc2)cc1,-25.6
3,COc1ccc(S(=O)(=O)NCCC(C)C)cc1C,-18.2
4,N=C1C(c2ccccc2)=C(O)CN1c1cccc(S(=O)(=O)N2CCOCC2)c1,7.63
5,CC1=NNC(=O)C1CC(=O)N/N=C/c1ccncc1 (stereo not shown),26.5
6,COc1ccc(C2CC(c3ccccc3)Nc3nc(NC(=O)c4ccco4)nn32)cc1 (stereo not shown),-64.4
7,COCCN(C(=O)COC(=O)CCOc1cccc(C)c1)c1c(N)n(Cc2ccccc2)c(=O)[nH]c1=O,21
8,CCOc1ccc(/C=C\c2nc(O)c([N+](=O)[O-])c(=O)[nH]2)cc1OCC,10.9
9,C=CCn1c(-c2ccc(OC)c(OC)c2)cs/c1=N\c1ccccn1,13.2
10,NC1=NC(c2ccc(Cl)cc2)C(C(=O)c2ccccc2)N1 (stereo not shown),-1.57
11,O=C(OCC(=O)c1cccs1)c1cccc(C(=O)OCC(=O)c2cccs2)n1,-4.01
12,CN(CCCC1CCCC1)C(=O)c1cc(COc2ccc(F)cc2F)on1,14.4
13,CCn1cc(C(=O)c2ccccc2)c2ccccc21,-16.2
14,COc1ccccc1C1NC(=O)NC(C)=C1C(=O)OCc1ccccc1 (stereo not shown),2.94
15,Cc1ccc(-c2csc3nc(SCC(=O)N(C)C)n(Cc4ccccc4)c(=O)c23)cc1,-26
16,O=[N+]([O-])c1ccc(Cl)c(-c2ccc(/C=N/n3cnnc3)o2)c1,1.67
17,O=C(O)CCC(=O)Nc1ccc(C(=O)N2CCCCC2)cc1,20.6
18,Cc1ccc2c(c1)CCCN2CC(=O)Nc1cccc(S(=O)(=O)N2CCCC2)c1,-10.4
19,O=C(Nc1ccc(N2CCCCCC2)cc1)c1ccccc1Cl,-16.2
20,COC(=O)CN(C#N)c1nc(NC(C)C)nc(NC(C)C)n1,1.13
21,CC(C)(C)Nc1nc(N)nc(Cl)n1,5.87
22,CC(C)=CCN1CCN(Cc2cnc(-c3ccccc3)s2)CC1CCO (stereo not shown),-49.2
23,COc1ccc(Br)cc1/C=C/c1ccc2cccc(O)c2n1,17.3
24,O=C(COC(=O)c1ccc(Cl)cc1Cl)Nc1cccc(S(=O)(=O)NC2=NCCC2)c1,-23.3
25,CCC(Sc1nc(=O)cc(N)n1-c1ccccc1)C(=O)Nc1cc(C)on1 (stereo not shown),7.88
26,Cc1ccc(N(CC(=O)NC2CCCC2)C(=O)CCC(=O)Nc2ccccn2)cc1C,14.9
27,CCCCNC(=O)c1ccccc1SCC(=O)NC1CCCCCCC1,-16.8

# — article PMC4336329 (PLoS ONE, 2015)
